Hit rate of the full screen: of about 220,000 compounds, about 5,700 (2.6%) were called active. The shares of active, inactive and inconclusive entries below differ from those in the screen. Calls come from the whole dose curve; as a rule, active = well fitted inhibition curve with a large enough effect; inconclusive = small, poorly fitted or top-dose-only effect; inactive = no such curve, though single readings can be large or run the other way. Potencies of inconclusive entries are doubtful fits and often do not repeat.
The compounds below were run against Lysine-specific demethylase 5B (Homo sapiens) (UniProt Q9UGL1) (assay: Primary screen for KDM5B Histone Demethylases FDH-coupled qHTS). Settings: FDH-coupled NADH fluorescence (FDH is formaldehyde dehydrogenase); activity change, negative = inhibition: at 57.7 µM (top of the series).
UniProt Q9UGL1, sequence (Q9UGL1 whole entry, looked up): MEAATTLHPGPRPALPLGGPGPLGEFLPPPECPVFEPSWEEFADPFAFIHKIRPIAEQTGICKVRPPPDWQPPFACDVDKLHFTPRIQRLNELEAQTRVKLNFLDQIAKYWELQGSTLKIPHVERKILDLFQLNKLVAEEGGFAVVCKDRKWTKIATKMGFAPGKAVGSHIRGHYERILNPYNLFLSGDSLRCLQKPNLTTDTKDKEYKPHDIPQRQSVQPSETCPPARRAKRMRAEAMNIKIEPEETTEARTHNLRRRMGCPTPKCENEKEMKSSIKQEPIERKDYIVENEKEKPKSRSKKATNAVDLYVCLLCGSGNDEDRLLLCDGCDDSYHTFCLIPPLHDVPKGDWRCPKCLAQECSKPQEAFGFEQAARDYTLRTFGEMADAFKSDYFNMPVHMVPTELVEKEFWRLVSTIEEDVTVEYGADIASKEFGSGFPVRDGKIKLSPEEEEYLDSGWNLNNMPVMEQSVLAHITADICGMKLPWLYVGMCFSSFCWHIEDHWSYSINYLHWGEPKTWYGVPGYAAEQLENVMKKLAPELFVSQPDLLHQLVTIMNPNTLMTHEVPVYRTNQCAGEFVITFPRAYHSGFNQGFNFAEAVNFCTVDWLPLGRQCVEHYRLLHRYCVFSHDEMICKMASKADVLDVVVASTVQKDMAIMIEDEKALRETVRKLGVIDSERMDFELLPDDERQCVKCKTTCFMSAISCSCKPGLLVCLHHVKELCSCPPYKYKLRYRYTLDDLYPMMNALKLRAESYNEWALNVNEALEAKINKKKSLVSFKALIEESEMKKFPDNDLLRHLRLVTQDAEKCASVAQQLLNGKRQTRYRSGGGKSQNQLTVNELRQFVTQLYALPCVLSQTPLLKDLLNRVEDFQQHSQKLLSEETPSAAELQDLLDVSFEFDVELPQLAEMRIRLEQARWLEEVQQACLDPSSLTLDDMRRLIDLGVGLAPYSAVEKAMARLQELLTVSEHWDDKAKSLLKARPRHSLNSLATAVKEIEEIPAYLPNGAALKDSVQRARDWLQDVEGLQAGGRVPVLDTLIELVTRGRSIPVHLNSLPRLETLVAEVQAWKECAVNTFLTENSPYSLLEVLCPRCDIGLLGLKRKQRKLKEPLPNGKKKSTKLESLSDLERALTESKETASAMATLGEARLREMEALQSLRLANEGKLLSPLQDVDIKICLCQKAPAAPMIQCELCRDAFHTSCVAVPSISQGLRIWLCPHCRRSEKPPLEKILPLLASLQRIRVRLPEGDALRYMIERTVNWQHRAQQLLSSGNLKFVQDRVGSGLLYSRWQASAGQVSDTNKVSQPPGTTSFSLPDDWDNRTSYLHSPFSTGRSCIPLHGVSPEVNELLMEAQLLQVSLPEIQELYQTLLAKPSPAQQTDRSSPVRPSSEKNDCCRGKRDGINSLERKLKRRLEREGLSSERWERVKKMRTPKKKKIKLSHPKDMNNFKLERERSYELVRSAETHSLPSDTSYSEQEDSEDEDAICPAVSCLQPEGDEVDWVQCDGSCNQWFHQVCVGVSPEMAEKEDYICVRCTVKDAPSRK
Excerpt: Assay Submitter (PI): Qin Yan, Ph.D. (Yale University) and Xiaodong Cheng, Ph.D. (MD Anderson) This project was funded as part of the NCI NEXT Program and Chemical Biology Consortium (CBC) The histone demethylases, KDM5A and KDM5B catalyze the demethylation of lysine 4 on histone H3 (H3K4me3/2). They are overexpressed in a variety of cancers and have been implicated in cancer cell growth, metastasis, drug resistance, and tumor growth. KDM5A is amplified and overexpressed in breast and gastric cancer; and is translocated in leukemia. While KDM5B is highly expressed in human mammary tumors and breast cancer cell lines, but not in normal adult breast tissue. Moreover, knockdown of KDM5B leads to upregulation of tumor suppressor genes, including BRCA1. The goal of this project is to employ qHTS to identify selective small molecule inhibitors of KDM5A/B demethylase activity to better understand the role of KDM5 in cancer and to develop novel therapies. We employed an FDH-coupled assay previously reported by Sakurai et al. to monitor in vitro KDM5 demethylase activity. Compounds showing dose response inhibition are re-acquired, validated, and tested for non-specific interference with the formaldehyde dehydrogenase (FDH) counterscreen. True inhibitors are validated using an AlphaLisa secondary screen, which employs an H3K4(me2-1)-specific antibody to monitor demethylation of a biotin-tagged H3K4(me3) peptide substrate. Inhibitors are profiled against KDM4A and KDM6A AlphaLisa counterscreens to determine level of demethylase specificity; and against the TruHits counterscreen to eliminate non-specific inhibitory activity on the AlphaLISA detection method. Selective inhibitors identified from the primary and secondary screening are tested in cells using immunofluorescence to monitor global H3K4 tri-methylation as a measure of KDM5A/B inhibition. Early Translation Branch (ETB) National Center for Advancing Translational Sciences (NCATS), Rockville, MD National Institute of Health (NIH), Bethesda, Maryland [1] Sakurai, M et al. A miniaturized screen for inhibitors of Jumonji histone demethylases. Mol Biosyst. 2010 Feb;6(2):357-64. doi: 10.1039/b912993f. Epub 2009 Oct 8.
Materials: 1536-well Black, solid bottom, medium binding assay plate is purchased from Greiner Bio-one. The enzymes (KDM5B) and substrate (H3K4me3/2) are provided by the principal investigators. The buffer for this assay is composed of 50mM HEPES at pH 7.5 with 0.01% Tween-20. FDH coupled Demethylase qHTS protocol: Three microliter enzyme mix (buffer + 200nM KDM5BDeltaAP final concentration) is dispensed into the assay plate using the BioRAPTR Flying Reagent Dispenser (FRD; […]). Compound (at various final concentration) and control solution is pin transferred to the assay plate using the Kalypsys 1536-pin tool apparatus. The assay plate is incubated for 10 min at room temperature followed by addition of 1uL substrate mix (buffer + 100uM ascorbic acid, 50uM ferrous ammonium sulfate, 12.5uM H3K4Me3, 25uM a-ketoglutarate, 0.25 mM NAD+, 0.25 U/mL formaldehyde dehydrogenase using the FRD yielding a total reaction volume of 4 uL. Initial fluorescence (Read1) is detected using the PerkinElmer ViewLux plate reader equipped with 340 nm excitation and 450 nm emission filters. The final fluorescence (Read2) signal is obtained after 30 min of room temperature incubation. Delta RFU is calculated (Read2 - Read1) and is used to generated dose response curves.
Note: nearly all actives have a fitted effect of over 70% in size.
Potency is the fitted concentration of half-maximal effect; tags give direction and shape of the fitted curve.
Throughout, for activity change, negative = inhibition: 0% is about no effect.

SMILES	Potency	activity change, negative = inhibition
CC[C@H]1CN2CC[C@H]1C[C@@H]2CNCc1ccc(-c2ccccc2)cc1	inactive	–
COc1cccc(NC(=O)c2cccn(Cc3ccccc3C)c2=O)c1	inconclusive: 22.4 µM [inhibitor, partial curve, poor fit]	–
Cc1ccc(Cn2cccc(C(=O)Nc3ccc4c(c3)OCCO4)c2=O)cc1	inactive	–
NCCc1ccc(OCc2ccccc2)cc1	inactive	–
Cn1nc(-c2ccc(F)cc2)cc1[C@H]1CN2CC[C@H]1C[C@@H]2CNC(=O)c1cccs1	inactive	–
Cc1ccccc1-n1c(/C=C/c2c(C)[nH]c3ccccc23)nc2ccccc2c1=O	inconclusive: 22.4 µM [inhibitor, single point]	–
COc1ccc(-c2cc([C@H]3CN4CC[C@H]3C[C@@H]4CN)nc(C)n2)cc1OC	active: 39.8 µM	–
COc1ccc(-c2cc([C@H]3CN4CC[C@H]3C[C@@H]4CNC(=O)C3CCCCC3)n(C)n2)cc1OC	inactive	–
Cc1ccccc1-n1c(C)nc2ccsc2c1=O	inconclusive: 39.8 µM [inhibitor, single point]	–
COc1ccc(OCC(=O)N2CCN(CCc3ccncc3)CC2)cc1	–	inconclusive: -37.7% [inhibitor]
Cn1nc(-c2ccc3ccccc3c2)cc1[C@H]1CN2CC[C@H]1C[C@@H]2CNC(=O)NCc1ccccc1	inconclusive: 35.5 µM [inhibitor, partial curve, poor fit]	–
COc1cc2c(cc1OCc1ccncc1)NC(=O)C21CCN(c2ccccn2)CC1	active: 28.2 µM	–
O=C(c1ccn[nH]1)N1[C@H]2CC[C@@H]1c1cnc(-c3ccccc3)nc1C2	inactive	–
OCC1CN(C2CCC2)CC12CCNCC2 (configuration not stated)	inactive	–
CN(C)C1CNC1	inactive	–
Cc1c(C(c2ccc(Br)cc2)c2c(O)c3ccccc3oc2=O)c(=O)n(-c2ccccc2)n1C (configuration not stated)	inconclusive: 35.5 µM [inhibitor, partial curve, poor fit]	–
COc1ccccc1NC(=O)c1cn(Cc2ccccc2)c2ccccc12	inconclusive: 39.8 µM [inhibitor, single point]	–
Cc1nc(-c2ccco2)cc([C@H]2CN3CC[C@H]2C[C@@H]3CNC(=O)C2CCC2)n1	inconclusive: 39.8 µM [inhibitor, partial curve, poor fit]	–
CN(C)C(=O)Oc1ccc2c(=O)c(-c3ccccc3)coc2c1	inactive	–
C=C[C@H]1CN2CC[C@H]1C[C@@H]2CNC(=O)c1ccc2c(c1)OCO2	inconclusive: 50.1 µM [inhibitor, partial curve, poor fit]	–
O=C(c1cccs1)N1C[C@@H]2C[C@H](C1)c1c(-c3cncnc3)ccc(=O)n1C2	inconclusive: 35.5 µM [inhibitor, partial curve, poor fit]	–
Clc1ccc(-c2ccc(CNC3CN4CCC3CC4)o2)c(Cl)c1 (configuration not stated)	inactive	–
Clc1cc(CNC2CN3CCC2CC3)cc(Cl)c1OCc1ccccc1 (configuration not stated)	inactive	–

SMILES	Potency	activity change, negative = inhibition
CCCNC(=O)OC[C@H]1C[C@@H]2CCN1C[C@@H]2c1cc(-c2ccc(OC)cc2)nn1C	inactive	–
O=C1CC2CCN(Cc3ccncc3)CC2CCN1 (configuration not stated)	inconclusive: 100 µM [inhibitor, partial curve, poor fit]	–
CN(C)c1ccc(NC(=O)c2sc3nc4c(cc3c2N)N2CCC4CC2)cc1	inconclusive: 14.1 µM [inhibitor, partial curve, poor fit]	–
COc1cc(/C=C(/C)[N+](=O)[O-])cc(OC)c1OC	inconclusive: 25.1 µM [inhibitor, partial curve, poor fit]	–
O=C(N/N=C/c1c(O)n(CCc2ccccc2)c(=O)[nH]c1=O)c1ccccc1	inconclusive: 8.91 µM [inhibitor, partial curve, poor fit]	–
Cc1nc(-c2cccs2)cc([C@H]2CN3CC[C@H]2C[C@@H]3CNC(=O)Nc2cccc(C(F)(F)F)c2)n1	inactive	–
CN(C)Cc1ccccc1-c1ccc2n(c1=O)C[C@H]1C[C@@H]2CN(C(=O)c2cccs2)C1	inconclusive: 31.6 µM [inhibitor, partial curve, poor fit]	–
COc1ccc(C2SCC(=O)Nc3c2c(C)nn3C)cc1 (configuration not stated)	inconclusive: 39.8 µM [inhibitor, single point]	–
CN1C(=O)[C@@H]2C[C@@H](O)CN2C2(CN(Cc3cccnc3)C2)C1=O	inconclusive: 39.8 µM [inhibitor, partial curve, poor fit]	–
Cc1cc(C(=O)CCl)c(C)[nH]1	inconclusive: 1.78 µM [inhibitor, partial curve, poor fit]	–
COc1ccccc1-c1cc([C@H]2CN3CC[C@H]2C[C@@H]3CNC(C)=O)n(C)n1	inactive	–
C=C[C@H]1CN2CC[C@H]1C[C@@H]2CNC(=O)c1cccnc1SC	inactive	–
Cn1nc(C2CCCCC2)cc1[C@H]1CN2CC[C@H]1C[C@@H]2CN	inactive	–
Cc1[nH]c2c(C)ccc(C)c2c1CCN	inconclusive: 10 µM [inhibitor, partial curve, poor fit]	–
COc1cc2c(cc1OCc1ccncc1)NC(=O)C21CCN(Cc2ccncc2)CC1	inconclusive: 31.6 µM [inhibitor, partial curve, poor fit]	–
COc1cc2c(cc1OC1CCCC1)NC(=O)C21CCN(c2nc(C)cc(C)n2)CC1	inconclusive: 31.6 µM [inhibitor, partial curve, poor fit]	–
COCc1nc(C2CC(N)C2)cc(N2CCCN3CCC[C@H]3C2)n1 (some centres not stated)	inconclusive: 12.6 µM [inhibitor, partial curve, poor fit]	–
COCCNC(=O)[C@H]1CN2CC[C@H]1C[C@@H]2Cn1cc(CN(C)C)nn1	inactive	–
CCC(CC)c1cc([C@H]2CN3CC[C@H]2C[C@@H]3CNC2CCN(C(C)=O)CC2)nc(-c2ccncc2)n1	inconclusive: 31.6 µM [inhibitor, single point]	–
COc1cc2c(cc1OCc1ccccc1)N(C(=O)c1cc3ccccc3n1C)CC21CCN(C)CC1	inconclusive: 25.1 µM [inhibitor, single point]	–
COC(=O)[C@@]1(C#N)[C@@H]2C=CC(C(C)=O)=CN2[C@@H](C(N)=O)[C@@H]1c1ccc(F)cc1	inconclusive: 20 µM [inhibitor, single point]	–
CCCCc1cn(C[C@H]2CC3CCN2C[C@@H]3C(=O)NCc2ccco2)nn1 (some centres not stated)	inactive	–
Cn1c(O)c(/C=C2\C=c3ccccc3=NC2=O)c(=O)n(C)c1=O	inconclusive: 14.1 µM [inhibitor, partial curve, poor fit]	–

SMILES	Potency	activity change, negative = inhibition
CSc1ccc(-c2ccc(=O)n3c2[C@@H]2C[C@@H](CN(S(=O)(=O)c4cccs4)C2)C3)cc1	inconclusive: 31.6 µM [inhibitor, partial curve]	–
CCOc1ccc(CN(CCc2ccc3c(c2)OCO3)Cc2ccc(OC)c(Br)c2)cc1	inconclusive: 28.2 µM [inhibitor, partial curve, poor fit]	–
COC1CN(c2ccc(C)cc2)C12CCNCC2 (configuration not stated)	inactive	–
CCOc1cc(CNC2CN3CCC2CC3)ccc1OCc1ccccc1Cl (configuration not stated)	inactive	–
CCOc1ccc2nc(NC(=O)c3cccn(Cc4ccccc4Cl)c3=O)sc2c1	inconclusive: 35.5 µM [inhibitor, single point]	–
CCC(=Nc1ccc2c(c1)CCC2)c1c(O)n(-c2ccc(OC)cc2)c(=O)[nH]c1=O	inconclusive: 31.6 µM [inhibitor, partial curve, poor fit]	–
Cc1cc(CN2CCC3(CC2)C(=O)Nc2ccccc23)no1	inconclusive: 1.41 µM [inhibitor, full curve, poor fit]	–
CSc1cccc(NC(=O)NC[C@H]2C[C@@H]3CCN2C[C@@H]3CN2CCSCC2)c1	inactive	–
CCc1cnc(N2CCC3(CC2)C(=O)Nc2cc(Oc4ccccc4)c(OC)cc23)nc1	active: 31.6 µM	–
CCc1ccc(OCC(=O)N2CCN(CCc3ccncc3)CC2)cc1	inconclusive: 35.5 µM [inhibitor, single point]	–
CN(C)C(=O)Oc1ccc2c(c1)O/C(=C\c1cccc(Cl)c1)C2=O	inconclusive: 22.4 µM [inhibitor, single point]	–
O=C(NC[C@H]1C[C@@H]2CCN1C[C@@H]2CN1CCCCC1)c1ccc(C(F)(F)F)cc1	inactive	–
COc1cc2c(cc1Oc1ccccc1)NC(=O)C21CCN(C(=O)c2cccnc2)CC1	inactive	–
O=C(NCc1ccc(F)cc1)[C@H]1CN2CCC1C[C@@H]2Cn1cc(CSc2ccccc2)nn1 (some centres not stated)	inactive	–
O=c1c2ccccc2nc(/C=C/c2ccccc2)n1-c1ccc(O)cc1	inconclusive: 31.6 µM [inhibitor, single point]	–
O=C1CO[C@H]2CN(Cc3ncc[nH]3)C[C@H]2N1Cc1ccccn1	active: 35.5 µM	–
N#CC1=C(N)Oc2nc(SCc3ccccc3Cl)nc(N)c2C1c1ccc(F)cc1 (configuration not stated)	inactive	–
COc1cc(C2SCC(=O)Nc3c2c(C)nn3C)ccc1OCc1ccccc1C (configuration not stated)	inconclusive: 28.2 µM [inhibitor, partial curve, poor fit]	–
COc1ccc(NC(=O)NC[C@H]2C[C@@H]3CCN2C[C@@H]3c2cc(-c3ccccc3Br)nc(C)n2)cc1	inconclusive: 28.2 µM [inhibitor, partial curve, poor fit]	–
CCC(CC)c1cc([C@H]2CN3CC[C@H]2C[C@@H]3CNC(C)=O)nc(-c2ccncc2)n1	inconclusive: 31.6 µM [inhibitor, partial curve]	–
CN(C)c1ccc(-[n+]2ccc(-c3cc[n+](-c4ccc(N(C)C)cc4)cc3)cc2)cc1	inconclusive: 22.4 µM [inhibitor, partial curve, poor fit]	–
